# In the supplement of paper PMC8728848:
# The other results are listed elsewhere or left out.
# What was measured:
# Experiment in all cases: glycan array binding signal (z-score within array); higher = stronger binding
# Settings in all cases: glycan notation: IUPAC condensed, linker removed
# [1] = biological target: Gal6S(b1-4)Glc6S
# Method in brief: (§1)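 Glycan array binding is given as a within-array Z-score, which can be read as non-binding when negative. The arrays, 3228 of them, came from the Consortium for Functional Glycomics database and were retained only where the protein sequence was available. Z-scores were averaged across arrays of the same protein sequence at different concentrations or buffers and across linkers.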
# [2] = biological target: Gal6S(b1-4)GlcNAc
# Method in brief: as §1
# [3] = biological target: Gal6S(b1-4)GlcNAc6S
# Method in brief: as §1
# [4] = biological target: GalNAc(a1-3)Gal
# Method in brief: as §1
# [5] = biological target: GalNAc(a1-3)GalNAc
# Method in brief: as §1
# [6] = biological target: GalNAc(a1-3)GalNAc(b1-3)Gal(a1-4)Gal(b1-4)Glc
# Method in brief: as §1
# [7] = biological target: GalNAc(a1-3)GalNAc(b1-3)Gal(a1-4)Gal(b1-4)GlcNAc
# Method in brief: as §1
# [8] = biological target: GalNAc(b1-3)Gal
# Method in brief: as §1
# [9] = biological target: GalNAc(b1-3)Gal(a1-4)Gal(b1-4)GlcNAc
# Method in brief: as §1
# [10] = biological target: GalNAc(b1-3)Gal(a1-4)Gal(b1-4)GlcNAc(b1-3)Gal(b1-4)Glc
# Method in brief: as §1
# [11] = biological target: GalNAc(b1-3)Gal(a1-6)Gal(b1-4)Glc
# Method in brief: as §1
# [12] = biological target: GalNAc(b1-3)GalNAc
# Method in brief: as §1
# [13] = biological target: GalNAc(b1-3)GlcNAc
# Method in brief: as §1
# [14] = biological target: GalNAc(b1-4)Gal(b1-4)Glc
# Method in brief: as §1
# [15] = biological target: GalNAc(b1-4)GlcNAc
# Method in brief: as §1
# [16] = biological target: GalNAc(b1-4)GlcNAc(b1-2)Man
# Method in brief: as §1
# [17] = biological target: GalNAc(b1-4)GlcNAc(b1-2)Man(a1-3)[GalNAc(b1-4)GlcNAc(b1-2)Man(a1-6)]Man(b1-4)GlcNAc(b1-4)GlcNAc
# Method in brief: as §1
# [18] = biological target: GalNAc(b1-4)GlcNAc(b1-3)GalNAc(b1-4)GlcNAc
# Method in brief: as §1
# [19] = biological target: GalNAc(b1-4)GlcNAc6S
# Method in brief: as §1
# [20] = biological target: GalNAc(b1-6)GalNAc
# Method in brief: as §1
# [21] = biological target: GalNAc3S(b1-4)GlcNAc
# Method in brief: as §1
# [22] = biological target: GalNAc3S(b1-4)GlcNAc3S
# Method in brief: as §1
# [23] = biological target: GalNAc3S(b1-4)[Fuc(a1-3)]GlcNAc
# Method in brief: as §1
# [24] = biological target: GalNAc4S6S(b1-4)GlcNAc
# Method in brief: as §1
# [25] = biological target: GalNAc6S(b1-4)GlcNAc
# Method in brief: as §1
# [26] = biological target: Glc(a1-4)Glc
# Method in brief: as §1
# [27] = biological target: Glc(a1-4)Glc(a1-4)Glc(a1-4)Glc
# Method in brief: as §1
# [28] = biological target: Glc(a1-6)Glc(a1-6)Glc
# Method in brief: as §1
# [29] = biological target: Glc(a1-6)Glc(a1-6)Glc(a1-6)Glc
# Method in brief: as §1
# [30] = biological target: Glc(b1-4)Glc
# Method in brief: as §1
# [31] = biological target: Glc(b1-6)Glc
# Method in brief: as §1
# [32] = biological target: GlcA(b1-3)Gal
# Method in brief: as §1
# [33] = biological target: GlcA(b1-3)GlcNAc
# Method in brief: as §1
# [34] = biological target: GlcA(b1-6)Gal
# Method in brief: as §1
# [35] = biological target: GlcA3S(b1-3)Gal(b1-4)GlcNAc(b1-2)Man
# Method in brief: as §1
# [36] = biological target: GlcA3S(b1-3)Gal(b1-4)GlcNAc(b1-3)Gal(b1-4)Glc
# Method in brief: as §1
# [37] = biological target: GlcNAc(a1-3)Gal(b1-4)GlcNAc
# Method in brief: as §1
# [38] = biological target: GlcNAc(a1-4)Gal(b1-3)GlcNAc
# Method in brief: as §1
# [39] = biological target: GlcNAc(a1-4)Gal(b1-4)GalNAc
# Method in brief: as §1
# [40] = biological target: GlcNAc(a1-4)Gal(b1-4)GlcNAc
# Method in brief: as §1
# [41] = biological target: GlcNAc(a1-4)Gal(b1-4)GlcNAc(b1-3)Gal(b1-4)Glc
# Method in brief: as §1
# [42] = biological target: GlcNAc(a1-4)Gal(b1-4)GlcNAc(b1-3)Gal(b1-4)GlcNAc
# Method in brief: as §1
# [43] = biological target: GlcNAc(a1-4)Gal(b1-4)GlcNAc(b1-3)Gal(b1-4)GlcNAc(b1-3)Gal(b1-4)GlcNAc
# Method in brief: as §1
# [44] = biological target: GlcNAc(a1-4)Gal(b1-4)GlcNAc(b1-3)Gal(b1-4)[Fuc(a1-3)]GlcNAc(b1-3)Gal(b1-4)[Fuc(a1-3)]GlcNAc
# Method in brief: as §1
# [45] = biological target: GlcNAc(a1-6)Gal(b1-4)GlcNAc
# Method in brief: as §1
binder,measurement,setting,value
Pwp3 (Candida glabrata) (protein) MGSSHHHHHHSSGLVPRGSHMASKNPVDFTTVCQFPDNFSKKPGFLATTARLGLWITGNSYKELLNYPGTFTLTTQQASTTTPNIQLRGTDLFTTIYGLTVYPLYLLVELQGYFVPTQSGMYTFSLTGSDDAAIIFIGNPSTFPCDAFKTWPQATANDITVTDSINPSRTLYMVKGVAYPLRIAYYNGLGNGVLNAAFTDPSGTKRTDWNGYIWQYDQCSTCTYK,glycan array binding signal (z-score),[1],6.29
same,glycan array binding signal (z-score),[2],0.319
same,glycan array binding signal (z-score),[3],2.41
same,glycan array binding signal (z-score),[4],0.009
same,glycan array binding signal (z-score),[5],-0.636
same,glycan array binding signal (z-score),[6],0.097
same,glycan array binding signal (z-score),[7],-0.292
same,glycan array binding signal (z-score),[8],-0.372
same,glycan array binding signal (z-score),[9],-0.89
same,glycan array binding signal (z-score),[10],-0.309
same,glycan array binding signal (z-score),[11],0.106
same,glycan array binding signal (z-score),[12],-0.961
same,glycan array binding signal (z-score),[13],-0.654
same,glycan array binding signal (z-score),[14],1.3
same,glycan array binding signal (z-score),[15],1.29
same,glycan array binding signal (z-score),[16],-0.911
same,glycan array binding signal (z-score),[17],-0.242
same,glycan array binding signal (z-score),[18],0.01
same,glycan array binding signal (z-score),[19],0.026
same,glycan array binding signal (z-score),[20],-0.636
same,glycan array binding signal (z-score),[21],-0.53
same,glycan array binding signal (z-score),[22],-0.114
same,glycan array binding signal (z-score),[23],-1.68
same,glycan array binding signal (z-score),[24],2
same,glycan array binding signal (z-score),[25],-0.571
same,glycan array binding signal (z-score),[26],-0.313
same,glycan array binding signal (z-score),[27],-0.189
same,glycan array binding signal (z-score),[28],-0.261
same,glycan array binding signal (z-score),[29],-0.566
same,glycan array binding signal (z-score),[30],-0.125
same,glycan array binding signal (z-score),[31],-0.774
same,glycan array binding signal (z-score),[32],-1.27
same,glycan array binding signal (z-score),[33],0.04
same,glycan array binding signal (z-score),[34],0.434
same,glycan array binding signal (z-score),[35],0.527
same,glycan array binding signal (z-score),[36],-0.545
same,glycan array binding signal (z-score),[37],-0.153
same,glycan array binding signal (z-score),[38],-0.45
same,glycan array binding signal (z-score),[39],0.899
same,glycan array binding signal (z-score),[40],-0.761
same,glycan array binding signal (z-score),[41],-0.39
same,glycan array binding signal (z-score),[42],-1.24
same,glycan array binding signal (z-score),[43],-0.069
same,glycan array binding signal (z-score),[44],-0.735
same,glycan array binding signal (z-score),[45],-0.688
